Measured values taken from a collection of fitness landscapes (doi:10.1038/s41467-024-54723-y).
In all, about 18,000 sequences were measured (“TetR repression strength (sort-seq, GFP reporter)”: median about 0.23, highest 2% from about 0.68 on). Some of the results follow.

target: TetR (class B, Tn10) (UniProt P04483); experiment: TetR repression strength (sort-seq, GFP reporter) (relative to tetO2 = 1); higher = stronger repression; conditions: E. coli
In short: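 Three independent transformations of E. coli SIG10-MAX were made with a low-copy plasmid library randomizing eight operator positions between a constitutive promoter and sfGFP, with constitutive TetR. Following 5 h at 37 °C in LB plus 50 µg/mL chloramphenicol, 10^6 cells went through FACS into 13 fluorescence bins, and each bin was sequenced by Illumina. Repression strength was defined as the top bin index plus one minus the read-weighted mean bin, divided by the unaltered operator's value. Averages included only members reaching ≥30 reads in all replicates with a CV ≤0.5.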

Chain of UniProt P04483 (P04483 whole entry): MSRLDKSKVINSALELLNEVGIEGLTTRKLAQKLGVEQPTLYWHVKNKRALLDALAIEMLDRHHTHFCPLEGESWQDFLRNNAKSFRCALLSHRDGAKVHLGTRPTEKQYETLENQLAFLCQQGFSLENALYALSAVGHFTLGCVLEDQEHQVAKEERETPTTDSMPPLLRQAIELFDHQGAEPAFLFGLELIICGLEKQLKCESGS

First: TCCCTTGGAGTACGAGAGA
Second: TCCCGAGTAGTGCGTGAGA
The TetR repression strength of the first is higher: 0.295 for the first, 0.0897 for the second.

Going from TCCCGGATAGTTGGGGAGA to TCCCTTTCAGTGAGGGAGA, the TetR repression strength rises from 0.178 to 0.221.

Going from TCCCAATGAGTGGTCGAGA to TCCCAAAGAGTGTTTGAGA, the TetR repression strength falls from 0.163 to 0.108.

Compared with TCCCTGCTAGTGATCGAGA, TCCCCGACAGTGGGTGAGA is lower in TetR repression strength: 0.745 for the first, 0.152 for the second.

Going from TCCCCACTAGTGTGCGAGA to TCCCGCAGAGTTGTAGAGA, the TetR repression strength rises from 0.218 to 0.53.

Compared with TCCCCACCAGTTGTAGAGA, TCCCCTCGAGTTAAGGAGA is lower in TetR repression strength: 0.265 for the first, 0.155 for the second.

Going from TCCCTTAGAGTGTCCGAGA to TCCCATGTAGTATGAGAGA, the TetR repression strength falls from 0.339 to 0.27.

Going from TCCCCGATAGTTCGAGAGA to TCCCTTATAGTTTGAGAGA, the TetR repression strength rises from 0.104 to 0.198.

First: TCCCCTTCAGTCAACGAGA
Second: TCCCAGCAAGTGTCAGAGA
The TetR repression strength of the first is higher: 0.389 for the first, 0.205 for the second.

First: TCCCCGGAAGTTGGGGAGA
Second: TCCCAACTAGTCATAGAGA
The TetR repression strength of the first is lower: 0.216 for the first, 0.397 for the second.

First: TCCCGGATAGTCGGCGAGA
Second: TCCCCCGGAGTGCTGGAGA
The TetR repression strength of the first is lower: 0.211 for the first, 0.227 for the second.

Going from TCCCGGATAGTCCTCGAGA to TCCCTCTTAGTGGTGGAGA, the TetR repression strength falls from 0.415 to 0.196.

First: TCCCGTTCAGTTAAGGAGA
Second: TCCCAGTGAGTCTGTGAGA
The TetR repression strength of the first is lower: 0.297 for the first, 0.481 for the second.

Compared with TCCCCAGGAGTACATGAGA, TCCCCATTAGTTGTGGAGA is higher in TetR repression strength: 0.129 for the first, 0.151 for the second.

Compared with TCCCTTCGAGTGCGCGAGA, TCCCCCGAAGTAGTTGAGA is lower in TetR repression strength: 0.281 for the first, 0.102 for the second.

Compared with TCCCGGCGAGTGCTAGAGA, TCCCTGTTAGTATGGGAGA is lower in TetR repression strength: 0.196 for the first, 0.179 for the second.

Compared with TCCCGCCTAGTCAAGGAGA, TCCCTAGCAGTTCCTGAGA is lower in TetR repression strength: 0.509 for the first, 0.431 for the second.

Going from TCCCGTCAAGTTCCGGAGA to TCCCTTAAAGTTTGCGAGA, the TetR repression strength rises from 0.121 to 0.622.

Going from TCCCATTCAGTATAAGAGA to TCCCTATAAGTCTCGGAGA, the TetR repression strength rises from 0.348 to 0.365.

First: TCCCCGATAGTTGCAGAGA
Second: TCCCAGAAAGTTGAGGAGA
The TetR repression strength of the first is lower: 0.118 for the first, 0.29 for the second.

First: TCCCGGAAAGTGTTGGAGA
Second: TCCCGCTGAGTGTCGGAGA
The TetR repression strength of the first is higher: 0.33 for the first, 0.246 for the second.

Going from TCCCCTAAAGTACAGGAGA to TCCCAGGAAGTCGTTGAGA, the TetR repression strength falls from 0.0737 to 0.

Compared with TCCCGGTGAGTGGTTGAGA, TCCCATCCAGTGCCAGAGA is higher in TetR repression strength: 0.231 for the first, 0.637 for the second.

Going from TCCCTTTCAGTTAGCGAGA to TCCCTTAAAGTCTAAGAGA, the TetR repression strength falls from 0.614 to 0.539.

First: TCCCGGTTAGTGCGGGAGA
Second: TCCCGGGGAGTGGAGGAGA
The TetR repression strength of the first is lower: 0.245 for the first, 0.31 for the second.

Compared with TCCCTCGGAGTGGAAGAGA, TCCCCGGTAGTGGTAGAGA is lower in TetR repression strength: 0.296 for the first, 0.118 for the second.

First: TCCCTGCTAGTCCACGAGA
Second: TCCCCAACAGTATATGAGA
The TetR repression strength of the first is lower: 0.296 for the first, 0.434 for the second.

Going from TCCCGCATAGTTTTCGAGA to TCCCTAACAGTTTGGGAGA, the TetR repression strength falls from 0.477 to 0.244.

Compared with TCCCGACCAGTTGATGAGA, TCCCTGAGAGTTGGTGAGA is lower in TetR repression strength: 0.401 for the first, 0.164 for the second.

Compared with TCCCCCATAGTTGGGGAGA, TCCCATTCAGTTATAGAGA is higher in TetR repression strength: 0.172 for the first, 0.596 for the second.

Compared with TCCCCTCTAGTGGGCGAGA, TCCCTAACAGTTGCGGAGA is lower in TetR repression strength: 0.318 for the first, 0.209 for the second.

First: TCCCTGGTAGTGGTGGAGA
Second: TCCCTATCAGTTTTCGAGA
The TetR repression strength of the first is lower: 0.1 for the first, 0.523 for the second.

Going from TCCCGGCTAGTTTCGGAGA to TCCCATTTAGTAGGAGAGA, the TetR repression strength falls from 0.317 to 0.157.

First: TCCCAGGGAGTACGAGAGA
Second: TCCCGCGAAGTTAGCGAGA
The TetR repression strength of the first is higher: 0.209 for the first, 0.15 for the second.

First: TCCCGATGAGTAGGCGAGA
Second: TCCCCGTAAGTGTACGAGA
The TetR repression strength of the first is lower: 0.106 for the first, 0.16 for the second.

Going from TCCCAATTAGTGTTCGAGA to TCCCGGCGAGTTTCCGAGA, the TetR repression strength rises from 0.184 to 0.26.

Compared with TCCCTAGTAGTTCGGGAGA, TCCCGCGGAGTGTGGGAGA is higher in TetR repression strength: 0.184 for the first, 0.299 for the second.

Compared with TCCCGTAGAGTGAGTGAGA, TCCCGGGGAGTACTCGAGA is lower in TetR repression strength: 0.271 for the first, 0.206 for the second.

Compared with TCCCTTCGAGTTATAGAGA, TCCCATATAGTAGGTGAGA is higher in TetR repression strength: 0.248 for the first, 0.43 for the second.

Going from TCCCGTAAAGTAGAGGAGA to TCCCGCCGAGTAGGCGAGA, the TetR repression strength rises from 0.0749 to 0.34.

First: TCCCCAGGAGTGAGAGAGA
Second: TCCCGCTAAGTACGCGAGA
The TetR repression strength of the first is higher: 0.0419 for the first, 0.0193 for the second.

First: TCCCCGGAAGTGGTGGAGA
Second: TCCCTGACAGTAGAGGAGA
The TetR repression strength of the first is higher: 0.154 for the first, 0.109 for the second.

Compared with TCCCACCGAGTTTTTGAGA, TCCCAATGAGTTGATGAGA is lower in TetR repression strength: 0.46 for the first, 0.101 for the second.

Going from TCCCCCTTAGTCTCAGAGA to TCCCGATGAGTGGAAGAGA, the TetR repression strength falls from 0.385 to 0.258.

First: TCCCCAACAGTTTCCGAGA
Second: TCCCGGTGAGTTGGTGAGA
The TetR repression strength of the first is higher: 0.443 for the first, 0.391 for the second.

Compared with TCCCGCGTAGTATTAGAGA, TCCCATGGAGTCTGTGAGA is higher in TetR repression strength: 0.00942 for the first, 0.103 for the second.

Going from TCCCGGTTAGTTCGAGAGA to TCCCTAACAGTGTCTGAGA, the TetR repression strength rises from 0.0821 to 0.22.

Compared with TCCCTTGTAGTGGGGGAGA, TCCCGGATAGTGTCGGAGA is lower in TetR repression strength: 0.469 for the first, 0.141 for the second.

Going from TCCCAAAGAGTGCTTGAGA to TCCCAACGAGTGGGCGAGA, the TetR repression strength falls from 0.267 to 0.0899.

First: TCCCTGTTAGTCGCTGAGA
Second: TCCCGGGCAGTGAACGAGA
The TetR repression strength of the first is lower: 0.263 for the first, 0.369 for the second.

Going from TCCCTAAAAGTATTTGAGA to TCCCGTCCAGTAATTGAGA, the TetR repression strength falls from 0.322 to 0.274.
